The campaign covered roughly 310,000 compounds. About 2,200 (0.71%) showed an effect of 50% or more. Effects have a minus sign here. The list shows a part of the results.
target: human ether-à-go-go-related gene (hERG) potassium channel (human, UniProt Q12809); test: primary screen, population patch clamp on CHO cells stably expressing hERG
Sequence (Q12809 whole entry, looked up): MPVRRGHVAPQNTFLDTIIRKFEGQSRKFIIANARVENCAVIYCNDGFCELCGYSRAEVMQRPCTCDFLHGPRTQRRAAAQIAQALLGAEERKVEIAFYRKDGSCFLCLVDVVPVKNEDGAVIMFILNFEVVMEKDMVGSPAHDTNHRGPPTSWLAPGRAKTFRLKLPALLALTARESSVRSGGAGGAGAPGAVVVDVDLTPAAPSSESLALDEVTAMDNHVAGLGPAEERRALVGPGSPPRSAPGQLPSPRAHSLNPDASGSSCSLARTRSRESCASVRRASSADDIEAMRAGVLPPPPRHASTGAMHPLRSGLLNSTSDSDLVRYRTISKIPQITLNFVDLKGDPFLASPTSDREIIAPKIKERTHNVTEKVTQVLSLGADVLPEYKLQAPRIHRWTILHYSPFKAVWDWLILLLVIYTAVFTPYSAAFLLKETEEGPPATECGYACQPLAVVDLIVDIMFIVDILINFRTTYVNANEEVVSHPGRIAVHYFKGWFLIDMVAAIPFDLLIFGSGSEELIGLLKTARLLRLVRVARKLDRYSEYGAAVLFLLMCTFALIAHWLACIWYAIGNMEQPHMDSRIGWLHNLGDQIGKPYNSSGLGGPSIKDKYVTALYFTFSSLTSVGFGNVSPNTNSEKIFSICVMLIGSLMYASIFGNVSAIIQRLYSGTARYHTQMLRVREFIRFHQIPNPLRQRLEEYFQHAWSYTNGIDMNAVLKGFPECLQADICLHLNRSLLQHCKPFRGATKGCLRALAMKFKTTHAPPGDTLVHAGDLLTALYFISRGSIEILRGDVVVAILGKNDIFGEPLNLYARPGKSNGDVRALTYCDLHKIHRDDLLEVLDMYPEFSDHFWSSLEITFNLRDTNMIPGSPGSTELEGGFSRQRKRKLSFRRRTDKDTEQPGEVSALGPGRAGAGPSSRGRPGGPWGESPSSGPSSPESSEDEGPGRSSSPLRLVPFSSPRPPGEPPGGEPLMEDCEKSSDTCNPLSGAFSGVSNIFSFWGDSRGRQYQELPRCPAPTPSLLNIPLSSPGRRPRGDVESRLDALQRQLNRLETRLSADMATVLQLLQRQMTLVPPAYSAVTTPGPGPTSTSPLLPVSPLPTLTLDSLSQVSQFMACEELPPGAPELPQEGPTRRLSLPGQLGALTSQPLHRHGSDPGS

| SMILES | hERG current change (%, negative = inhibition) at 1uM |
| --- | --- |
| O=C(CCn1c(=S)[nH]c2ccccc2c1=O)NCC1CCCO1 (stereo not shown) | -1.57% |
| Nc1c(C(=O)c2ccccc2)sc2c1c(=O)[nH]c(=O)n2-c1ccccc1 | -0.482% |
| CC(C)n1c(O)c(N=NC(=O)C2COc3ccccc3O2)c2ccccc21 (stereo not shown) | 8.58% |
| COc1ccc(CCNC(=O)CSc2nc3[nH]ncc3c(=O)n2-c2ccccc2Br)cc1OC | 36.2% |
| Cc1cc(C(=O)Nc2nc3c(C)cccc3s2)c(C)o1 | 5.46% |
| Cc1cc(C)c2c(N)c(C(=O)N/N=C/c3cccnc3)sc2n1 | 13.2% |
| CC(C)CNS(=O)(=O)c1ccc(S(=O)(=O)N2CCCN(Cc3ccccc3)C2)cc1 | 7.2% |
| O=C1Nc2ccccc2C12Nc1ccccc1-c1nc3ccccc3n12 (stereo not shown) | 6.73% |
| Fc1ccc(NC(=S)N2CCCc3ccccc32)cc1 | 4.07% |
| O=C(CSc1nnc(-c2ccncc2)n1Cc1ccccc1)Nc1nccs1 | 6.45% |
| CCOc1ccccc1N(CC(=O)Nc1ccccc1C(=O)N1CCOCC1)S(C)(=O)=O | 14.3% |
| CN(c1ccc(OCC(=O)NCCc2ccccc2)cc1)S(=O)(=O)c1ccc(Cl)cc1 | 10.3% |
| Cc1cc(NC(=O)CN2CCCCC2C)nc2c1c(=O)oc1ccccc12 (stereo not shown) | 12.3% |
| Clc1ccc(N/N=C/c2ccncc2)cc1Cl | 13.8% |
| O=C(NC(=S)NCc1ccccc1)c1ccc2c(c1)OCO2 | 2.26% |
| CCN1CCN(C(=S)c2ccc(OCC(=O)N3CCOCC3)cc2)CC1 | 16.2% |
| Cc1cccc(CC(C)NC(=O)CCc2nnc(CCCCc3ccccc3)o2)n1 (stereo not shown) | 8.38% |
| CC(C)CNC(=O)C1CCN(Cc2ccc(OCc3ccccc3)cc2)CC1.O=C(O)C(=O)O | -26.7% |
| Cc1ccc(C)c(C(=O)O/N=C(\N)c2ccc(Br)cc2)c1 | 5.76% |
| COc1cccc(NC(=O)c2cnc(SC)nc2C)c1 | 13.4% |
| CCOc1cccc(/C=N/NC(=S)Nc2ccccc2[N+](=O)[O-])c1O | 12.4% |
| COc1cccc(OC)c1C(=O)Nc1cccc(-c2nc3ccccc3[nH]2)c1 | -0.724% |

| SMILES | hERG current change (%, negative = inhibition) at 1uM |
| --- | --- |
| CC1CCOC2(O1)C(=O)Nc1ccccc12 (stereo not shown) | 7.37% |
| Cn1c(=O)c(C(=O)CN2CCc3ccccc32)c(N)n(Cc2ccccc2)c1=O | -1.78% |
| Cc1cc([N+](=O)[O-])ccc1-c1ccc(/C=N/NC(=O)c2ccc(Br)o2)o1 | -4.2% |
| Cc1cccc(NC(=O)N2CCCC2C(=O)NCc2cccs2)c1 (stereo not shown) | 1.27% |
| CCOC(=O)N1CCC(NC(=O)CCc2ccccc2)CC1 | 11.6% |
| CCOC(=O)[C@@H]1[C@H]2COc3cc(OC)ccc3[C@@H]2N2C(=O)N(c3ccc(F)cc3)C(=O)[C@]12C | 8.75% |
| Cc1cc(NC(=O)COC(=O)COc2cccc3c2OC(C)(C)C3)no1 | 13.6% |
| CCOc1cccc2cc(C(=O)NCc3ccc(OC)cc3)c(=N)oc12 | 11.5% |
| CCCCOC(=O)C1=C(C)Nc2ncnn2C1c1ccc(OC)c(OC)c1 (stereo not shown) | 2.61% |
| COc1ccc2cc(/C=N/O)c(Cl)nc2c1 | 11.2% |
| CCN1CC(CN(C)Cc2nc(-c3ccc(OC)c4ccccc34)oc2C)CC1=O (stereo not shown) | 1.02% |
| COc1ccc(CC(=O)Nc2nnc(C(C)C)s2)cc1OC | 4.74% |
| O=C1NC(Cc2c[nH]c3ccccc23)C(=O)N1c1ccc(F)cc1 (stereo not shown) | 14.3% |
| COc1cccc(N(C(=O)c2nc3nccc(C)n3n2)c2nc3ccccc3s2)c1 | 3.26% |
| CN1CCN(c2nc3c(c(=O)n(C)c(=O)n3C)n2Cc2cccc3ccccc23)CC1 | 3.53% |
| O=C(CCC(=O)N(CC(=O)NC1CCCCC1)c1ccccc1F)Nc1nccs1 | -2.33% |
| O=C1NC(=O)N(c2ccccc2)C(=O)/C1=C/c1ccoc1 | 15% |
| Cc1nn(-c2ccccc2)c(C)c1C(=O)OCC(=O)N1c2ccccc2NC(=O)C1(C)C | 2.24% |
| Cc1cc(N)n(-c2nc(-c3cccnc3)nc3ccccc23)n1 | -7.06% |
| Cc1ccc(-n2c(-c3cc(-c4ccco4)[nH]n3)n[nH]c2=S)c(Br)c1 | 11.6% |
| COc1cc(C(CCN2CCCC2)c2c(OC)cc(OC)c3ccc(=O)oc23)cc(OC)c1OC (stereo not shown) | -26.2% |
| O=S(=O)(Nn1cnnc1)c1ccccc1Cl | 14.1% |

| SMILES | hERG current change (%, negative = inhibition) at 1uM |
| --- | --- |
| O=C(CSc1nc2ccccc2nc1N1CCOCC1)Nc1ccccc1F | 6.29% |
| COc1cc(Cl)c(C)cc1NC(=O)CSCC#N | 5.82% |
| Cc1ccc(NC(=O)CCn2nc(C)cc2C)c(C)c1 | 8.75% |
| CNC(=S)N/N=C/c1ccc(C(C)C)cc1 | 7.9% |
| CCOc1ccc2nc(Cl)sc2c1 | 12% |
| COc1ccc(NC(=O)c2cc([N+](=O)[O-])ccc2N2CCN(C)CC2)cc1 | -15.5% |
| CC(Oc1ccc(Cl)cc1Cl)C(=O)NNC(=O)[C@@H]1CCCC[C@@H]1C(=O)O (stereo partly shown) | 8.32% |
| CCO[C@H]1OC(C(=O)N2CCCCCCC2)=C[C@@H](c2coc3ccccc3c2=O)[C@@H]1CCCO | 3.19% |
| CCOC(=O)N1CCN(C(=S)Nc2ccccc2C(C)C)CC1 | 4.46% |
| c1ccc(CN2CCN(Cc3cn4cccnc4n3)CC2)cc1 | 13.4% |
| O=S(=O)(c1ccccc1C(F)(F)F)N1CCC(n2cnc3ccccc32)CC1 | -20.7% |
| Fc1ccc(COc2ccccc2CNc2nn[nH]n2)cc1 | 11.5% |
| CCc1ccc(N(CC(=O)NCCc2ccccc2)C(=O)CCC(=O)Nc2ccccn2)cc1 | 5.65% |
| CNc1ccccc1C(=O)OC(C)C(=O)Nc1ccc(Cl)cn1 (stereo not shown) | 7.14% |
| C=CCn1c(NCc2ccc(OC)cc2O)nc2ccccc21 | 8.41% |
| O=C(CSc1nnnn1C1CCCCC1)Nc1ccccc1F | 17.5% |
| NS(=O)(=O)c1ccc(NC(=O)CSc2nc3c(c(=O)[nH]2)CCCC3)cc1 | 9.72% |
| CCOc1cc2nc(-c3ccc(OC)c(OC)c3)nc(N3CCOCC3)c2cc1OC | -12.7% |
| COc1ccc(CNC(=O)CSc2nccn(-c3ccc(F)c(F)c3)c2=O)cc1 | 2.84% |
| CCOC(=O)c1ccc(N2CCN(c3ccccc3F)CC2)c(NC(=O)Nc2ccccc2)c1 | 9.63% |
| CCOc1ccccc1NC(=O)C1CCN(C(=O)Cc2ccccc2)CC1 | -2.58% |
| CCc1cc2c(=O)[nH]c(Cc3ccc(Cl)cc3)nc2s1 | 7.22% |

| SMILES | hERG current change (%, negative = inhibition) at 1uM |
| --- | --- |
| O=C(CCn1c2c(c3ccccc31)CCCC2)NNC(=O)c1ccc([N+](=O)[O-])cc1 | 7.92% |
| O=C1NC2(CCCC2)C(=O)N1CC(=O)N(Cc1ccccc1)c1ccccc1 | 3.82% |
| CC1CCc2nn(CC(=O)N3CCCCCC3)cc2C1 (stereo not shown) | -6.55% |
| C/C(CC(=O)NC12CC3CC(CC(C3)C1)C2)=N\NC(=O)c1ccc(F)cc1 | -6.52% |
| CC1(C)CC(=O)c2cn3ncnc3nc2C1 | -0.182% |
| COc1ccc(C(=O)OCC(=O)NCc2ccco2)cc1S(=O)(=O)N1CCN(c2cccc(Cl)c2)CC1 | 8.38% |
| O=[N+]([O-])c1ccccc1Nc1nc(-c2cccnc2)cs1 | 10.7% |
| COc1cc(/C=C/C(=O)OCC(=O)NC(=O)NC2CCCCC2)ccc1OC(F)F | 2.3% |
| COc1ccc(-c2[nH]ncc2CN2CCCN(C(=O)c3ccco3)CC2)cc1F | -24.5% |
| Cc1csc(NC(=O)CCNC(=O)c2ccc([N+](=O)[O-])cc2)n1 | -6.76% |
| CN(C)S(=O)(=O)c1cccc(NC(=S)NNC(=O)c2cc3ccccc3cc2O)c1 | 6.79% |
| COC(=O)[C@@H]1C[C@H]2CC[C@H](O)C[C@H]2N1Cc1ccccc1OC(=O)c1cccs1 | -1.33% |
| Cc1[nH]c2ccccc2c1CCCO | 10.6% |
| CCc1cccc(NC(=O)Cn2cc3c(n2)CCCC3)c1 | 0.19% |
| O=C(CCCOc1ccc(Cl)cc1Cl)NCCc1nnc2ccccn12 | 8.05% |
| O=C(NCCCN1CCCCCC1)c1ccc(N2CCCC2=O)cc1 | 2.12% |
| S=C(Nc1ccc(Br)cc1)N1CCN(c2ccccn2)CC1 | 14% |
| C=CCN=C1S/C(=C\c2ccc(Cl)cc2)C(=O)N1CC=C | 10.8% |
| COc1ccccc1CNC(=O)C1CCN(S(=O)(=O)N2CCCCC2)CC1 | 5.25% |
| COc1ccc2c(c1)C1(Nc3ccccc3-c3nc4ccccc4n31)C(=O)N2C (stereo not shown) | 12.1% |
| Cc1ccc(Cn2cc(SCC(N)=O)c3ccccc32)cc1 | 7.2% |
| Cc1noc(NS(=O)(=O)c2ccc(NC(=O)C(Cl)(Cl)Cl)cc2)c1C | 19.1% |

— article PMC4336329 (PLoS ONE, 2015)
